Experimental data from the supplement of paper PMC3334620.
The full ranking holds about 33,000 sequences; the median of “E-score (-0.5 to 0.5)” is about -0.01, and the highest 2% start at about 0.26. The list shows a part of the results.

Target: Ste12 (UniProt P13574)
Test: PBM E-score (8-mer binding enrichment) (E-score (-0.5 to 0.5)); higher = stronger / more preferred TF binding; most listed sequences are background and not binding sites
Conditions: protein concentration: 200 nM; construct: GST-DNA-binding domain
How it was run: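 Yeast transcription factors carrying a GST tag, as full-length proteins or DNA-binding domains, were produced by PURExpress in vitro transcription/translation. About 100-200 nM protein was applied to universal all-10-mer Agilent arrays, double-stranded by primer extension on fresh or once-stripped slides. Bound protein was detected with fluorescent anti-GST, and scans were normalised with masliner. The Universal PBM Analysis Suite gave each ungapped eight-base word, pooled with its reverse complement, an E-score, a modified Wilcoxon-Mann-Whitney statistic.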

Sequence | PBM E-score
CCCGAGGA | -0.0268
CAACTGTA | -0.0454
CCACTTCG | -0.0138
AGTACACA | 0.0479
GCTTTCGA | -0.159
CACCTAAC | 0.0515
CTGGTTTA | -0.0225
TCTCGACA | 0.0817
ATTTTCAA | 0.193
ACATAGAA | 0.244
CCCACTTA | 0.0163
CGCAACAG | 0.0203
CCAGATCG | 0.157
CGTTCCGC | 0.0351
AGCTGCCA | -0.0337
CAAACTAC | 0.0311
GCTCCCAC | -0.0278
ACTTCCTC | 0.113
CAGCCCTG | -0.335
CTGGATTC | -0.0392
TAAAGGTA | 0.0174
CACTAAAG | -0.0505
CTTTGATC | 0.109
ATACCTCA | 0.0605
ATTACAAC | -0.0498

Sequence | PBM E-score
AAGACAAA | 0.0815
CAGCGGAC | -0.0786
AAACAATC | 0.234
ATTAATGA | 0.254
ACGTGAGG | -0.0396
ATCAGAGG | -0.126
CAATCCCA | -0.0795
ATACATGG | 0.104
CGCTTGAA | 0.142
GAGATGCA | -0.0126
ATGCTGGG | -0.173
AGGCGAAT | 0.0149
GGTACGAA | 0.125
GCTCACAC | -0.0878
CAGAGAAA | 0.168
ATCGTGTC | 0.0885
AATTTACG | 0.167
ACCAGTCG | -0.16
AAGTCGGC | -0.16
CAAAGCAG | 0.0771
CCATGCTC | -0.189
CAAAAGAA | 0.156
CTCTGTGC | -0.0785
CAAGATTA | 0.116
CTTGTCTC | 0.0745

Sequence | PBM E-score
AAAGCCCC | -0.188
CGGTGTTC | 0.0606
AGGAGGAG | -0.136
CTTTGATA | 0.179
ACAGGCGT | -0.238
ATCTTTAA | 0.0393
ACTTATAT | 0.181
AAGGAGCC | -0.199
AAACTTTC | 0.11
AGGGGCGC | 0.0204
GCATAACA | 0.0198
CGATCGAG | 0.0464
ATTGATGC | 0.206
ACGGTTTA | -0.294
ACTTATCT | 0.0489
AGAGGCCG | -0.288
ATATAAAA | 0.307
CCGGCACA | -0.0858
GCTTTTAC | 0.095
GTGAACGA | 0.047
GCGGTTAA | 0.0154
GACCTAGC | -0.178
CTCGTGAA | 0.0434
CCATCGGA | -0.165
CACGAGAA | 0.123

Sequence | PBM E-score
ATAAACGA | 0.243
CAACGACG | -0.039
AGCGTGTG | 0.0207
GCGGCCGC | 0.119
ACGAAGTC | -0.0818
ACACTCAT | 0.0659
CCCTAATC | -0.0375
CATGCCCA | -0.203
ACGAAAGG | 0.0336
ACTCTAGA | 0.0724
ATCTTGGA | 0.0698
GTTGTTTA | 0.155
AGGCCAAC | -0.243
CGAGACAC | -0.0767
CAGACCGG | -0.185
CTGAATCA | 0.181
GCATGGAC | -0.0826
GCACGGGC | -0.0847
ATCTTTTA | 0.131
AAAGCCGT | 0.0271
CTGAATGA | 0.0145
AAAACTGC | -0.0235
CTACAGCC | -0.126
CTAGGAAC | -0.0455
ACAGGGCC | -0.15

Sequence | PBM E-score
AACCGTTG | -0.159
CGTGGACA | -0.0179
ACGGTCGA | -0.0811
CGCATGCG | 0.0199
AACGGCGC | -0.0862
CGTCCGAA | 0.0274
GTCTTTTA | -0.034
CACGGCAG | 0.0609
AGATTTTC | 0.0703
CGTCAGAC | -0.0997
ATGATGTG | -0.0189
ATAGGTCC | -0.0899
AACGTAAA | 0.153
AGTGCCCG | -0.158
CTGCGCTC | -0.219
GCAAGTGC | -0.217
AACCCTAA | -0.0607
ATAGAAGG | -0.0546
AGCCCCTG | -0.214
GACGTCAA | -0.138
ACGCGTCT | 0.0311
AGCCTCCC | -0.116
ATACACTA | 0.0879
CCGACTGA | 0.0911
CCGACGCC | 0.109

Sequence | PBM E-score
AATAGGGT | 0.148
CACACTCA | 0.0712
ATGTGGCG | -0.081
GCCCTCGC | -0.0381
GTGTATAA | -0.15
CCCGGGCC | -0.194
AATTGTCC | 0.148
ACAGTACA | 0.00937
AGATCGGA | 0.129
CCTGATTA | 0.091
CAAGTATG | 0.0625
TCGAGCGA | -0.0486
CAAATCAA | 0.194
CCGCACAC | 0.0886
ACACAAAG | 0.051
CACGCTCC | -0.131
CAGATATA | 0.0413
CGAATCCG | 0.0624
AAAAGCCT | -0.232
ATAGTCAT | -0.141
ATTCGCGA | 0.0844
CCCCCCCG | -0.257
CCTTTAAC | 0.0881
AATCCTTA | -0.0708
GAAGTCAA | 0.12

Sequence | PBM E-score
AGCCTTTC | -0.246
ATTCAACA | 0.111
CCGACCCA | 0.0514
GACTGTGC | -0.0863
CCCCTGCG | -0.0485
CAAAGGCC | -0.0534
ACGGGCCA | -0.14
CGCCGGCA | -0.0585
GTGACAGA | -0.0744
ACTGAACG | -0.163
ATTGTACA | -0.04
TTATGCAA | 0.0901
AAGTACGC | -0.102
ACGCTGGC | -0.128
AACAGTAC | 0.014
CTTGAGGC | -0.184
CCTTTTTC | 0.134
GTAGTTTA | 0.157
GAATAGCA | -0.132
AGACTTTA | -0.0902
AGCACAGA | 0.172
GAAATCTA | 0.195
